Laboratory results from the supplement of paper PMC8728848.
Some of the results follow.

Experiments:
Assay in all cases: glycan array binding signal (z-score within array); higher = stronger binding
Conditions in all cases: glycan notation: IUPAC condensed, linker removed
[1] = biological target: Gal(b1-4)GlcNAc(b1-2)[Gal(b1-4)GlcNAc(b1-4)]Man(a1-3)[Gal(b1-4)GlcNAc(b1-2)[Gal(b1-4)GlcNAc(b1-6)]Man(a1-6)]Man(b1-4)GlcNAc(b1-4)GlcNAc
In short: (§1)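 The Consortium for Functional Glycomics database supplied 3228 glycan arrays, of which those lacking an available protein sequence were dropped. The binding signal, a within-array Z-score, was averaged across arrays of the same protein sequence and across linkers. Negative scores can be read as non-binding.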

[2] = biological target: Gal(b1-4)GlcNAc(b1-2)[Gal(b1-4)GlcNAc(b1-4)]Man(a1-3)[GlcNAc(b1-4)][Gal(b1-4)GlcNAc(b1-2)Man(a1-6)]Man(b1-4)GlcNAc(b1-4)GlcNAc
In short: as §1

[3] = biological target: Gal(b1-4)GlcNAc(b1-2)[Gal(b1-4)GlcNAc(b1-4)]Man(a1-3)[GlcNAc(b1-4)][Gal(b1-4)GlcNAc(b1-2)[Gal(b1-4)GlcNAc(b1-6)]Man(a1-6)]Man(b1-4)GlcNAc(b1-4)GlcNAc
In short: as §1

[4] = biological target: Gal(b1-4)GlcNAc(b1-2)[Gal(b1-4)GlcNAc(b1-6)]Man(a1-6)[Gal(b1-4)GlcNAc(b1-2)Man(a1-3)]Man(b1-4)GlcNAc(b1-4)GlcNAc
In short: as §1

[5] = biological target: Gal(b1-4)GlcNAc(b1-2)[Gal(b1-4)GlcNAc(b1-6)]Man(a1-6)[Gal(b1-4)GlcNAc(b1-2)Man(a1-3)]Man(b1-4)GlcNAc(b1-4)[Fuc(a1-6)]GlcNAc
In short: as §1

[6] = biological target: Gal(b1-4)GlcNAc(b1-2)[Gal(b1-4)GlcNAc(b1-6)]Man(a1-6)[GlcNAc(b1-4)][Gal(b1-4)GlcNAc(b1-2)Man(a1-3)]Man(b1-4)GlcNAc(b1-4)GlcNAc
In short: as §1

[7] = biological target: Gal(b1-4)GlcNAc(b1-2)[Gal(b1-4)GlcNAc(b1-6)]Man(a1-6)[GlcNAc(b1-4)][Gal(b1-4)GlcNAc(b1-2)[Gal(b1-4)GlcNAc(b1-4)]Man(a1-3)]Man(b1-4)GlcNAc(b1-4)[Fuc(a1-6)]GlcNAc
In short: as §1

[8] = biological target: Gal(b1-4)GlcNAc(b1-3)Gal(b1-3)GalNAc
In short: as §1

[9] = biological target: Gal(b1-4)GlcNAc(b1-3)Gal(b1-3)GlcNAc
In short: as §1

[10] = biological target: Gal(b1-4)GlcNAc(b1-3)Gal(b1-4)Glc
In short: as §1

[11] = biological target: Gal(b1-4)GlcNAc(b1-3)Gal(b1-4)GlcNAc
In short: as §1

[12] = biological target: Gal(b1-4)GlcNAc(b1-3)Gal(b1-4)GlcNAc(b1-2)Man(a1-3)[Gal(b1-4)GlcNAc(b1-3)Gal(b1-4)GlcNAc(b1-2)Man(a1-6)]Man(b1-4)GlcNAc(b1-4)GlcNAc
In short: as §1

[13] = biological target: Gal(b1-4)GlcNAc(b1-3)Gal(b1-4)GlcNAc(b1-2)Man(a1-3)[Gal(b1-4)GlcNAc(b1-3)Gal(b1-4)GlcNAc(b1-2)Man(a1-6)]Man(b1-4)GlcNAc(b1-4)[Fuc(a1-6)]GlcNAc
In short: as §1

[14] = biological target: Gal(b1-4)GlcNAc(b1-3)Gal(b1-4)GlcNAc(b1-2)[Gal(b1-4)GlcNAc(b1-3)Gal(b1-4)GlcNAc(b1-6)]Man(a1-6)[Gal(b1-4)GlcNAc(b1-3)Gal(b1-4)GlcNAc(b1-2)Man(a1-3)]Man(b1-4)GlcNAc(b1-4)GlcNAc
In short: as §1

[15] = biological target: Gal(b1-4)GlcNAc(b1-3)Gal(b1-4)GlcNAc(b1-2)[Gal(b1-4)GlcNAc(b1-3)Gal(b1-4)GlcNAc(b1-6)]Man(a1-6)[Gal(b1-4)GlcNAc(b1-3)Gal(b1-4)GlcNAc(b1-2)Man(a1-3)]Man(b1-4)GlcNAc(b1-4)[Fuc(a1-6)]GlcNAc
In short: as §1

[16] = biological target: Gal(b1-4)GlcNAc(b1-3)Gal(b1-4)GlcNAc(b1-3)Gal(b1-4)GlcNAc
In short: as §1

[17] = biological target: Gal(b1-4)GlcNAc(b1-3)Gal(b1-4)GlcNAc(b1-3)Gal(b1-4)GlcNAc(b1-2)Man(a1-3)[Gal(b1-4)GlcNAc(b1-3)Gal(b1-4)GlcNAc(b1-3)Gal(b1-4)GlcNAc(b1-2)Man(a1-6)]Man(b1-4)GlcNAc(b1-4)GlcNAc
In short: as §1

[18] = biological target: Gal(b1-4)GlcNAc(b1-3)Gal(b1-4)GlcNAc(b1-3)Gal(b1-4)GlcNAc(b1-2)Man(a1-3)[Gal(b1-4)GlcNAc(b1-3)Gal(b1-4)GlcNAc(b1-3)Gal(b1-4)GlcNAc(b1-2)Man(a1-6)]Man(b1-4)GlcNAc(b1-4)[Fuc(a1-6)]GlcNAc
In short: as §1

[19] = biological target: Gal(b1-4)GlcNAc(b1-3)Gal(b1-4)GlcNAc(b1-3)Gal(b1-4)GlcNAc(b1-2)[Gal(b1-4)GlcNAc(b1-3)Gal(b1-4)GlcNAc(b1-3)Gal(b1-4)GlcNAc(b1-6)]Man(a1-6)[Gal(b1-4)GlcNAc(b1-3)Gal(b1-4)GlcNAc(b1-3)Gal(b1-4)GlcNAc(b1-2)Man(a1-3)]Man(b1-4)GlcNAc(b1-4)[Fuc(a1-6)]GlcNAc
In short: as §1

[20] = biological target: Gal(b1-4)GlcNAc(b1-3)Gal(b1-4)GlcNAc(b1-3)Gal(b1-4)GlcNAc(b1-3)Gal(b1-4)GlcNAc(b1-2)Man(a1-3)[Gal(b1-4)GlcNAc(b1-3)Gal(b1-4)GlcNAc(b1-3)Gal(b1-4)GlcNAc(b1-3)Gal(b1-4)GlcNAc(b1-2)Man(a1-6)]Man(b1-4)GlcNAc(b1-4)GlcNAc
In short: as §1

[21] = biological target: Gal(b1-4)GlcNAc(b1-3)Gal(b1-4)GlcNAc(b1-3)Gal(b1-4)GlcNAc(b1-3)Gal(b1-4)GlcNAc(b1-2)Man(a1-3)[Gal(b1-4)GlcNAc(b1-3)Gal(b1-4)GlcNAc(b1-3)Gal(b1-4)GlcNAc(b1-3)Gal(b1-4)GlcNAc(b1-2)Man(a1-6)]Man(b1-4)GlcNAc(b1-4)[Fuc(a1-6)]GlcNAc
In short: as §1

[22] = biological target: Gal(b1-4)GlcNAc(b1-3)Gal(b1-4)GlcNAc(b1-3)Gal(b1-4)GlcNAc(b1-3)Gal(b1-4)GlcNAc(b1-2)[Gal(b1-4)GlcNAc(b1-3)Gal(b1-4)GlcNAc(b1-3)Gal(b1-4)GlcNAc(b1-3)Gal(b1-4)GlcNAc(b1-6)]Man(a1-6)[Gal(b1-4)GlcNAc(b1-3)Gal(b1-4)GlcNAc(b1-3)Gal(b1-4)GlcNAc(b1-3)Gal(b1-4)GlcNAc(b1-2)Man(a1-3)]Man(b1-4)GlcNAc(b1-4)[Fuc(a1-6)]GlcNAc
In short: as §1

[23] = biological target: Gal(b1-4)GlcNAc(b1-3)Gal(b1-4)GlcNAc(b1-3)Gal(b1-4)GlcNAc(b1-3)Gal(b1-4)GlcNAc(b1-3)Gal(b1-4)GlcNAc(b1-2)Man(a1-3)[Gal(b1-4)GlcNAc(b1-3)Gal(b1-4)GlcNAc(b1-3)Gal(b1-4)GlcNAc(b1-3)Gal(b1-4)GlcNAc(b1-3)Gal(b1-4)GlcNAc(b1-2)Man(a1-6)]Man(b1-4)GlcNAc(b1-4)GlcNAc
In short: as §1

[24] = biological target: Gal(b1-4)GlcNAc(b1-3)Gal(b1-4)GlcNAc(b1-3)Gal(b1-4)GlcNAc(b1-3)Gal(b1-4)GlcNAc(b1-3)Gal(b1-4)GlcNAc(b1-2)Man(a1-3)[Gal(b1-4)GlcNAc(b1-3)Gal(b1-4)GlcNAc(b1-3)Gal(b1-4)GlcNAc(b1-3)Gal(b1-4)GlcNAc(b1-3)Gal(b1-4)GlcNAc(b1-2)Man(a1-6)]Man(b1-4)GlcNAc(b1-4)[Fuc(a1-6)]GlcNAc
In short: as §1

[25] = biological target: Gal(b1-4)GlcNAc(b1-3)Gal(b1-4)GlcNAc(b1-3)Gal(b1-4)GlcNAc(b1-3)Gal(b1-4)GlcNAc(b1-3)Gal(b1-4)GlcNAc(b1-2)[Gal(b1-4)GlcNAc(b1-3)Gal(b1-4)GlcNAc(b1-3)Gal(b1-4)GlcNAc(b1-3)Gal(b1-4)GlcNAc(b1-3)Gal(b1-4)GlcNAc(b1-6)]Man(a1-6)[Gal(b1-4)GlcNAc(b1-3)Gal(b1-4)GlcNAc(b1-3)Gal(b1-4)GlcNAc(b1-3)Gal(b1-4)GlcNAc(b1-3)Gal(b1-4)GlcNAc(b1-2)Man(a1-3)]Man(b1-4)GlcNAc(b1-4)[Fuc(a1-6)]GlcNAc
In short: as §1

[26] = biological target: Gal(b1-4)GlcNAc(b1-3)Gal(b1-4)GlcNAc(b1-3)Gal(b1-4)GlcNAc(b1-3)Gal(b1-4)GlcNAc(b1-3)Gal(b1-4)GlcNAc(b1-3)Gal(b1-4)GlcNAc(b1-2)Man(a1-3)[Gal(b1-4)GlcNAc(b1-3)Gal(b1-4)GlcNAc(b1-3)Gal(b1-4)GlcNAc(b1-3)Gal(b1-4)GlcNAc(b1-3)Gal(b1-4)GlcNAc(b1-3)Gal(b1-4)GlcNAc(b1-2)Man(a1-6)]Man(b1-4)GlcNAc(b1-4)GlcNAc
In short: as §1

[27] = biological target: Gal(b1-4)GlcNAc(b1-3)Gal(b1-4)GlcNAc(b1-3)GalNAc
In short: as §1

[28] = biological target: Gal(b1-4)GlcNAc(b1-3)Gal(b1-4)GlcNAc(b1-3)[Gal(b1-4)GlcNAc(b1-3)Gal(b1-4)GlcNAc(b1-6)]GalNAc
In short: as §1

[29] = biological target: Gal(b1-4)GlcNAc(b1-3)Gal(b1-4)GlcNAc(b1-6)[Gal(b1-3)]GalNAc
In short: as §1

[30] = biological target: Gal(b1-4)GlcNAc(b1-3)Gal(b1-4)[Fuc(a1-3)GlcNAc(b1-6)]Gal(b1-4)Glc
In short: as §1

B1: Siglec-F (Mus musculus), Q920G3 (protein)
chain: MRWAWLLPLLWAGCLATDGYSLSVTGSVTVQEGLCVFVACQVQYPNSKGPVFGYWFREGANIFSGSPVATNDPQRSVLKEAQGRFYLMGKENSHNCSLDIRDAQKIDTGTYFFRLDGSVKYSFQKSMLSVLVIALTEVPNIQVTSTLVSGNSTKLLCSVPWACEQGTPPIFSWMSSALTSLGHRTTLSSELNLTPRPQDNGTNLTCQVNLPGTGVTVERTQQLSVIYAPQKMTIRVSWGDDTGTKVLQSGASLQIQEGESLSLVCMADSNPPAVLSWERPTQKPFQLSTPAELQLPRAELEDQGKYICQAQNSQGAQTASVSLSIRSLLQLLGPSCSFEGQGLHCSCSSRAWPAPSLRWRLGEGVLEGNSSNGSFTVKSSSAGQWANSSLILSMEFSSNHRLSCEAWSDNRVQRATILLVSGPKVSQAGKSETSRGTVLGAIWGAGLMALLAVCLCLIFFTVKVLRKKSALKVAATKGNHLAKNPASTINSASITSSNIALGYPIQGHLNEPGSQTQKEQPPLATVPDTQKDEPELHYASLSFQGPMPPKPQNTEAMKSVYTEIKIHKC
[1]
  glycan array binding signal (z-score): -0.127
[2]
  glycan array binding signal (z-score): -0.117
[3]
  glycan array binding signal (z-score): -0.101
[4]
  glycan array binding signal (z-score): -0.093
[5]
  glycan array binding signal (z-score): 0.07
[6]
  glycan array binding signal (z-score): -0.093
[7]
  glycan array binding signal (z-score): -0.149
[8]
  glycan array binding signal (z-score): -0.146
[9]
  glycan array binding signal (z-score): -0.127
[10]
  glycan array binding signal (z-score): -0.097
[11]
  glycan array binding signal (z-score): -0.096
[12]
  glycan array binding signal (z-score): -0.101
[13]
  glycan array binding signal (z-score): 0.14
[14]
  glycan array binding signal (z-score): -0.051
[15]
  glycan array binding signal (z-score): -0.054
[16]
  glycan array binding signal (z-score): -0.052
[17]
  glycan array binding signal (z-score): -0.059
[18]
  glycan array binding signal (z-score): 0.059
[19]
  glycan array binding signal (z-score): 0.116
[20]
  glycan array binding signal (z-score): -0.059
[21]
  glycan array binding signal (z-score): 0.093
[22]
  glycan array binding signal (z-score): -0.079
[23]
  glycan array binding signal (z-score): 0.062
[24]
  glycan array binding signal (z-score): -0.101
[25]
  glycan array binding signal (z-score): 0.053
[26]
  glycan array binding signal (z-score): 0.161
[27]
  glycan array binding signal (z-score): -0.155
[28]
  glycan array binding signal (z-score): 0.032
[29]
  glycan array binding signal (z-score): 0.034
[30]
  glycan array binding signal (z-score): -0.086
